Data published in PubChem BioAssay AID686978 (National Center for Advancing Translational Sciences (NCATS), 2013).
Hit rate of the full screen: of about 420,000 compounds, about 64,000 (15%) were called active. The inconclusive results got no clear call from the source; some entries with a clear call stand among them for comparison. Calls come from the whole dose curve; as a rule, active = well fitted inhibition curve with a large enough effect; inconclusive = small, poorly fitted or top-dose-only effect; inactive = flat fitted curve, though single readings scatter. Potencies of inconclusive entries are left out as doubtful fits.

test: qHTS for Inhibitors of human tyrosyl-DNA phosphodiesterase 1 (TDP1): qHTS in cells in absence of CPT; details: DT40 Tdp1-/- hTDP1 cells, no CPT, ATP luminescence, 48 h; activity change, negative = growth inhibition: at 46.2 µM (top of the series) unless noted; note: nearly all actives have a fitted effect of over 55% in size
Outline: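 Stably hTDP1-transfected Tdp1-null chicken DT40 cells were treated with library compounds minus camptothecin and grown for at least 48 hr at 37 °C, after which cellular ATP was quantified by luminescence.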
% is set by controls: 0 for no effect and ±100 for the full control effect; potency is the fitted concentration of half-maximal effect; tags give direction and shape of the fitted curve.

SMILES | Potency | activity change, negative = growth inhibition
CCC(=O)N1c2ccc(S(=O)(=O)CCC(=O)Nc3nccs3)cc2CC1C (stereo unspecified) | inconclusive [inhibitor, single point] | –
Cc1cccc(OCCC(=O)Nc2ccc(C)c(S(=O)(=O)N3CCOCC3)c2)c1 | inconclusive [inhibitor, single point] | –
Cc1cc2c(cc1C)C(c1ccccc1OC(C)C)CC(=O)N2 (stereo unspecified) | inconclusive [inhibitor, single point] | –
CC1(c2ccccc2Cl)NC(=O)N(CC(=O)Nc2ccc(N3CCCCC3)cc2)C1=O (stereo unspecified) | active: 20.6 µM | –
COc1cc2[nH]c(=O)n(CCC(=O)NCc3cccnc3)c(=O)c2cc1OC | – | inactive: 2.26%
COc1ccc(CC(=O)NCCCCc2ccccc2)cc1OC | inconclusive [inhibitor, single point] | –
Cc1nc2nc(SCC(=O)N3CCOCC3)nn2c(C)c1Cc1c(F)cccc1Cl | inconclusive [inhibitor, partial curve] | –
CCCCN(CC)CCCNC(=S)Nc1ccc2nc3n(c(=O)c2c1)CCCCC3 | – | inactive: -5.09%
COc1ccc(-c2ccc(C(=O)Nc3cccc(N(C)C)c3)c3occc23)c(C)c1 | inconclusive [inhibitor, single point] | –
c1ccc(Nc2nc(-c3ccncc3)cs2)nc1 | active: 16.4 µM | –
CCOC(=O)C1CCCN(c2c(C(=O)c3ccc(OCC)cc3)cnc3ccccc23)C1 (stereo unspecified) | inconclusive [inhibitor, single point] | –
CCN1CCN(CCCNC(=O)c2cnn(-c3ccccc3Cl)c2C2CCN(C(=O)OC(C)(C)C)CC2)CC1 | – | inactive: -29.4%
Cc1nn(C)c2c1c(-c1ccccc1)cc(=O)n2Cc1ccccc1C#N | inconclusive [inhibitor, single point] | –
COc1ccc2c(c1)CCc1cnc(-n3ncc(C(=O)NCCCN4CCOCC4)c3C)nc1-2 | inconclusive [inhibitor, partial curve] | –
CC(C)CN(CCCNC(=O)c1cc(-c2cccs2)nc2ccccc12)CC(C)C | – | inactive: -15.7%
CNNC(=O)C(=O)NNS(=O)(=O)c1ccccc1 | inconclusive [inhibitor, single point] | –
COc1cc(NC(=S)NC(=O)CCc2ccccc2)cc(OC)c1 | inconclusive [inhibitor, single point] | –
Cc1cc(NC(=O)CCS(=O)(=O)c2nc(-c3ccccc3)cc(C(F)(F)F)n2)no1 | active: 1.84 µM | –
O=C(Nc1cccc2ncccc12)c1cc2ccccc2o1 | inconclusive [inhibitor, single point] | –
Cc1cc(C(F)F)n2ncc(C(=O)NCc3ccccc3F)c2n1 | – | inconclusive: -36.4% [inhibitor]
CCCCCCc1nnc(N)s1 | – | inactive: -1.91%
Cc1ccc(N=C2N=C(N)c3ccccc32)cc1C | inconclusive [inhibitor, single point] | –
COc1ccc(NC(=S)N/N=C/c2cccn2Cc2ccccc2F)cc1 | inconclusive [inhibitor, partial curve] | –
CCOc1ccc(-n2c(SCC(N)=O)nnc2-c2ccco2)cc1 | – | inactive: -102%

SMILES | Potency | activity change, negative = growth inhibition
Cc1ccccc1-c1cnc(C(O)c2cc(Cl)cc(Cl)c2)[nH]1 (stereo unspecified) | inconclusive [inhibitor, single point] | –
COc1ccccc1C(=O)NCC1(c2ccccc2)CCCC1 | inconclusive [inhibitor, single point] | –
CC(C)Cc1ccc(CN2C(C)C(=O)N(Cc3cn(Cc4ccco4)nn3)CCS2(=O)=O)cc1 (stereo unspecified) | inconclusive [inhibitor, single point] | –
CN(Cc1ccccc1)C(=O)c1cc2cc(F)ccc2[nH]1 | inconclusive [inhibitor, partial curve] | –
COc1cccc(-c2ccc3c(c2)C2CC3CCN2C(=O)c2ccc(Cl)cc2)c1 (stereo unspecified) | inconclusive [inhibitor, single point] | –
O=C1c2cccc(Cl)c2C(=O)c2c1cccc2N1CCCC1 | inconclusive [inhibitor, partial curve] | –
CN(C)CCCNC(=O)/C=C/c1ccc(OCc2c(F)cccc2Cl)cc1 | inconclusive [inhibitor, full curve, poor fit] | –
Cc1ccc(C(O)c2ncc(-c3ccc(Cl)cc3)[nH]2)cc1F (stereo unspecified) | inconclusive [inhibitor, single point] | –
COc1cccc(-c2nc3ccccc3c(=O)o2)c1 | inconclusive [inhibitor, single point] | –
Cc1cc(F)ccc1NC(=O)C1CCN(C(=O)c2cnn(-c3ccccc3)c2-n2cccc2)CC1 | inconclusive [inhibitor, single point] | –
Oc1ccc(Cl)cc1C1=NNC(c2cccs2)C1 (stereo unspecified) | inconclusive [inhibitor, single point] | –
N#CC1=C(C2CC2)CC(c2ccccc2)C(C#N)=C1N (stereo unspecified) | inconclusive [inhibitor, single point] | –
O=C(CCC1N=C2c3ccccc3N=C(SCc3cccc(F)c3)N2C1=O)NCCc1ccccc1 (stereo unspecified) | inconclusive [inhibitor, single point] | –
COC(C(=O)Nc1ccc(S(=O)(=O)N2CCCCC2)cc1)c1ccccc1 (stereo unspecified) | – | inactive: -21.6%
O=C(Nc1nc(-c2cccc(Br)c2)cs1)Oc1ccccc1 | – | inactive: -10.9%
CN1C[C@@H]2[C@@H]3C(=O)N(C)C(=O)[C@@H]3[C@](Cc3ccccc3)(C1=O)N2C(=O)c1ccccc1 | – | inactive: -1.51%
Cc1cccc(C)c1NC(=O)Cn1nnc(C(=O)Nc2c(C)cccc2C)c1N | – | inactive: -14.7%
CCC1Sc2ccc(S(=O)(=O)CCC(=O)Nc3ccc(NC(C)=O)cc3)cc2NC1=O (stereo unspecified) | – | inactive: 17.6%
Cc1cc(Cl)c(S(=O)(=O)N2CCN(c3ccccn3)CC2)cc1OCC(=O)NC1CCCCC1 | active: 20.6 µM | –
O=C(c1ccccc1)c1cn(Cc2ccc(F)cc2)c2ccccc2c1=O | inconclusive [inhibitor, single point] | –
CN(CCOc1ccc(Br)cc1)CC(=O)Nc1cccc(S(=O)(=O)NC2=NCCC2)c1 | inconclusive [inhibitor, partial curve] | –
CCc1ccc(/C=C/C(=O)c2ccc(N3CCOCC3)cc2)cc1 | inconclusive [inhibitor, single point] | –
Cc1cnc(N=Nc2ccccc2)[nH]1 | inconclusive [inhibitor, single point] | –
O=S(=O)(c1cccc2nsnc12)N1CCN(c2ncccn2)CC1 | inconclusive [inhibitor, partial curve, poor fit] | –

SMILES | Potency | activity change, negative = growth inhibition
O=C(c1ccccc1S(=O)(=O)NCC(O)COc1ccc([N+](=O)[O-])cc1)N1CCCCC1 (stereo unspecified) | inconclusive [inhibitor, single point] | –
N=C1/C(=C\c2ccc(Br)o2)C(=O)N=C2SC(CC(=O)N3CCCCC3)=NN12 | active: 7.31 µM | –
CC(C)NC(=O)c1cc(-c2ccc(F)cc2OC(C)C)n[nH]1 | inconclusive [inhibitor, single point] | –
CC(C)(C)NC(=O)C(=O)NNC(=O)c1cccc(Br)c1 | – | inactive: 0.405%
NC(Cc1ccc(C(F)(F)F)cc1)c1csc(Nc2ccc(C(=O)c3ccccc3)cc2)n1 (stereo unspecified) | inconclusive [inhibitor, single point] | –
NNC(=O)C(=O)NCCCN1CCOCC1 | – | inactive: -6.05%
COc1ccc(Oc2ncc3ncc(=O)n(C[C@H]4CCCO4)c3n2)cc1 | inconclusive [inhibitor, partial curve, poor fit] | –
CCOC(=O)c1c(C)[nH]c(C(=O)OCC(=O)Nc2ccc(OC)c(Cl)c2)c1C | – | inactive: -8.86%
COc1ncnc2c1ncn2CCCNCCN1CCOCC1 | – | inactive: 12.5%
C=CCn1c(N)cc(=O)nc1SC(CC)C(=O)Nc1ccc(C(C)=O)cc1 (stereo unspecified) | – | inactive: -12.6%
c1ccc(CNCc2ccco2)cc1 | – | inactive: 3.88%
N#Cc1cnn(-c2nc(SCc3ccccc3)nc3sc4c(c23)CCCC4)c1N | – | inactive: 3.7%
Cc1ccc(OCC(=O)NCCCNC(=O)c2ccncc2)cc1C | – | inactive: -13.4%
O=c1c(Cl)c(N2CCN(c3ccc(F)cc3)CC2)cnn1C12CC3CC(CC(C3)C1)C2 | inconclusive [inhibitor, single point] | –
Cc1ccn2c(Nc3ccccc3)c(-c3ccccn3)nc2c1 | active: 2.59 µM | –
COCCCn1c(=N)c(C(=O)NCc2cccnc2)cc2c(=O)n3cccc(C)c3nc21 | inconclusive [inhibitor, partial curve] | –
CN1C(=O)Cc2cc(S(=O)(=O)CCC(=O)Nc3ccc(Cl)c(C(F)(F)F)c3)ccc21 | inconclusive [inhibitor, single point] | –
c1ccc(CNc2ncnc3c2cnn3Cc2ccccc2)cc1 | active: 13 µM | –
CCOC(=O)c1c(C)[nH]c(CCC(=O)NCc2cccc(C)c2)c1C | active: 16.4 µM | –
O=C(COc1ccc2ccccc2c1)N1CCN(C(=O)c2cccs2)CC1 | inconclusive [inhibitor, partial curve, poor fit] | –
NC(=NCc1ccc2c(c1)OCO2)NC(=O)c1ccccc1 | inconclusive [inhibitor, single point] | –
COc1ccc(NC(=O)c2oc3ccccc3c2NC(=O)Cc2coc3cc(C)ccc23)cc1 | active: 11.6 µM | –
CCC(=O)N1CCN(c2ccc(Cl)cc2NC(=O)c2ccc3c(c2)OCCO3)CC1 | inconclusive [inhibitor, single point] | –
